Assay results: ChEMBL document CHEMBL4888484, “Replenishing the malaria drug discovery pipeline: Screening and hit evaluation of the MMV Hit Generation Library 1 (HGL1) against asexual blood stage Plasmodium falciparum ,using a nano luciferase reporter read-out” (2022)
Screen size: about 150,000 compounds; about 540 (0.36%) showed an effect of 50% or more. The list shows a part of the results.

System: Plasmodium falciparum
Assay: Primary screen in NF54 nanoGlo assay, in single point, at 2uM, 72h; a lower Z score goes with more inhibition
Format: functional, Erythrocyte
Settings: timepoint 72 hour

| SMILES | % Inhibition | Z score |
| --- | --- | --- |
| CN(C1CCOCC1)S(=O)(=O)N1CCC(N2CCc3cc(F)ccc32)CC1 | -18% | 2.31 |
| CC(C)N(C[C@H]1CCC(=O)N1)C(=O)c1cn(C)c2ccccc12 | -3% | 0.43 |
| CCCS(=O)(=O)N(C)[C@@H](C)c1ccccc1O | -7% | 0.76 |
| C[C@@H](CCc1ccccc1)NC(=O)c1cccs1 | 6% | -0.9 |
| Cc1nn(C)c(S(=O)(=O)NCC(C)(C)CCCO)c1C(F)F | 0% | 0.04 |
| CCCc1nnc(N2C[C@H]3CC[C@@H](C2)[C@H]3OC)o1 | -1% | 0.24 |
| COc1ccc2c(c1)CCc1c(C(=O)Nc3cc(Cl)ccc3OC)n[nH]c1-2 | 1% | -0.19 |
| CCOC(=O)c1c(C)[nH]c(CCC(=O)NCCc2c(C)noc2C)c1C | 0% | -0.05 |
| CCCCn1nc(-c2ccc(C)o2)nc1[C@H]1CCOC1 | -9% | 1.75 |
| CCN1CC2(CCN(C(=O)CCCOc3ccccc3)CC2)CC1=O | -17% | 3.24 |
| FC(F)(F)c1cccc(C2(c3nnc(-c4ccc5c(c4)OCCO5)o3)CCOCC2)c1 | 0% | -0.04 |
| CC(C)n1nnc2ccc(-c3noc(-c4ccccc4)n3)cc21 | -20% | 2.19 |
| Cn1nc(CO)c2c1CCN(Cc1cn3ccccc3n1)C2 | -4% | 0.56 |
| c1csc(NCCCOC2CCCC2)n1 | -10% | 1.6 |
| O=C(Cc1cccs1)NC[C@H](O)c1ccc2c(c1)CCO2 | -27% | 3.45 |
| FCCn1cc(-c2noc(C3CCN(c4cnccn4)CC3)n2)cn1 | -8% | 0.86 |
| CC(C)(C)c1cc(NC(=O)c2ccc(Br)o2)n([C@H]2CCS(=O)(=O)C2)n1 | -11% | 0.97 |
| CC(=O)N1CCN(CC(=O)Nc2c(C#N)c(C)c(C)n2C2CCCCC2)CC1 | -3% | 0.25 |
| Cc1ccc(O)c(S(=O)(=O)N2c3ccccc3C[C@H]2C(N)=O)c1 | -9% | 1.19 |
| CCc1ccc(CN(C)CCn2nc(C)cc2C)nc1 | -14% | 1.93 |
| O=C(COc1ccc2c(c1)OCO2)Nc1nc(-c2ccccc2)cs1 | -19% | 3.6 |
| CC[C@@H](C(=O)Nc1nccs1)N1CCC(CNC(=O)C2CCC2)CC1 | -2% | 0.38 |
| Nc1cc2c(cc1-n1cnnn1)OCCO2 | -2% | 0.36 |
| N#Cc1cccc(C(=O)Nc2ccc(N3CCCN(Cc4ccc(F)c(F)c4)C3=O)cc2)c1 | -5% | 0.51 |
